# The supplement of paper PMC9174493
# This is one part of the list. Single values of this set are uncertain. Values with irradiation are relative to irradiated vehicle.
# Legend:
# A549-Dual [1] = assay: NF-kB reporter (SEAP) activity, viability-corrected, relative to vehicle (fold change vs vehicle); higher = more activation of STING-IRF / NF-kB immune response reporter; details: 10 µM
# A549-Dual [2] = assay: ISRE reporter (Lucia luciferase) activity, viability-corrected, relative to vehicle (fold change vs vehicle); higher = more activation of STING-IRF / NF-kB immune response reporter; details: 10 µM
# 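Throughout, for NF-kB reporter (SEAP) activity, viability-corrected, relative to vehicle: viability correction based on the alamar blue assay, with concentrations leaving 10% survival or less dropped.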
SMILES,NF-kB reporter (A549-Dual [1]; irradiation: 8 Gy/4 fr),NF-kB reporter (A549-Dual [1]; irradiation: none),ISRE reporter (A549-Dual [2]; irradiation: 8 Gy/4 fr),ISRE reporter (A549-Dual [2]; irradiation: none)
O=C(NC(Cc1cc(=O)[nH]c2ccccc12)C(=O)O)c1ccc(Cl)cc1 (stereo not given) [Rebamipide],0.863,0.99,0.932,0.741
CC1(C)CCC2(C(=O)O)C(O)CC3(C)C(=CCC4C5(C)CCC(O)C(C)(C=O)C5CCC43C)C2C1 (stereo not given) [Quillaic acid],0.99,0.882,0.938,0.871
CC1CC2C3CC(F)C4=CC(=O)C=CC4(C)C3(F)C(O)CC2(C)C1(O)C(=O)CO (stereo not given) [Flumethasone],0.284,0.602,0.0659,0.194
O=C(O)c1ccc2ccccc2c1O.OCc1cc(C(O)CNCCCCCCOCCCCc2ccccc2)ccc1O (stereo not given) [Salmeterol Xinafoate],0.57,0.72,0.665,0.715
CC1CCCC(C)N1NC(=O)c1ccc(Cl)c(S(N)(=O)=O)c1 (stereo not given) [Clopamide],0.552,0.646,0.603,0.543
COc1ccccc1OCC(O)CN1CCN(CC(=O)Nc2c(C)cccc2C)CC1.Cl.Cl (stereo not given) [Ranolazine 2HCl],0.894,1.05,0.973,0.802
Br.CN1CCCC1Cc1c[nH]c2ccc(CCS(=O)(=O)c3ccccc3)cc12 (stereo not given) [Eletriptan HBr],0.534,0.748,0.702,0.97
O=C([O-])CCC(=O)OCC(NC(=O)C(Cl)Cl)C(O)c1ccc([N+](=O)[O-])cc1.[Na+] (stereo not given) [Chloramphenicol sodium succinate],0.726,0.913,0.736,0.894
Cl.O=C(Nc1ccccc1)OCC(CN1CCCCC1)OC(=O)Nc1ccccc1 (stereo not given) [Diperodon HCl],0.976,0.746,0.939,0.725
O=C([O-])c1ccccc1.[Na+] [Sodium benzoate],0.732,1.13,0.649,0.819
CCC(C)CCCCC(=O)NC(CCN)C(=O)NC(C(=O)NC(CCN)C(=O)NC1CCNC(=O)C(C(C)O)NC(=O)C(CCN)NC(=O)C(CCN)NC(=O)C(CC(C)C)NC(=O)C(Cc2ccccc2)NC(=O)C(CCN)NC1=O)C(C)O.O=S(=O)(O)O (stereo not given) [Polymyxin B sulphate],0.912,0.955,0.863,0.964
Cl.O=C(c1ccc(OCCN2CCCCC2)cc1)c1c(-c2ccc(O)cc2)sc2cc(O)ccc12 [Raloxifene HCl],0.821,0.801,0.862,0.885
CC1CCc2c(N3CCC(O)CC3)c(F)cc3c(=O)c(C(=O)O)cn1c23 (stereo not given) [Nadifloxacin],0.936,1.03,0.715,0.759
Cc1cc(-n2c(=O)[nH]c(=O)n(C)c2=O)ccc1Oc1ccc(SC(F)(F)F)cc1 [Toltrazuril],0.884,1.15,0.826,1.02
CN(Cc1cc(Br)cc(Br)c1N)C1CCCCC1.Cl [Bromhexine HCl],0.83,1.25,0.912,0.911
O=c1cc(O)c(Cl)c[nH]1 [Gimeracil],0.613,0.854,0.602,0.723
CC(C)=CCCC(C)(OC1OC(COC2OC(CO)C(O)C(O)C2O)C(O)C(O)C1O)C1CCC2(C)C1C(O)CC1C3(C)CCC(OC4OC(CO)C(O)C(O)C4OC4OC(CO)C(O)C(O)C4O)C(C)(C)C3CCC12C (stereo not given) [Ginsenoside Rb1],0.649,0.588,0.629,0.53
O=S(=O)([O-])CCCCOCC1OC2OC3=C(CO)OC(OC4C(CO)OC(OC5C(CO)OC(OC6C(CO)OC(OC7C(CO)OC(OC8C(CO)OC(OC1C(O)C2OCCCCS(=O)(=O)[O-])C(O)C8O)C(O)C7O)C(O)C6O)C(O)C5O)C(O)C4O)C(O)C3O.[Na+].[Na+] (stereo not drawn) [Captisol (SBE-β-CD)],1.2,0.778,1.17,0.608
CCOc1nc2cccc(C(=O)OCc3oc(=O)oc3C)c2n1Cc1ccc(-c2ccccc2-c2nc(=O)o[nH]2)cc1 [Azilsartan Medoxomil],0.585,1.06,0.493,0.498
CCCCS(=O)(=O)NC(Cc1ccc(OCCCCC2CCNCC2)cc1)C(=O)O.Cl.O (stereo not given) [Tirofiban Hydrochloride],0.757,1.25,0.623,0.613
CC1CCOC2Cn3cc(C(=O)NCc4ccc(F)cc4F)c(=O)c(O)c3C(=O)N12 (stereo not given),0.588,0.839,0.465,0.64
O=C(Cn1cnnn1)NC1C(=O)N2C(C(=O)[O-])=C(CSc3nncs3)CSC12.[Na+] (stereo not given) [Ceftezole sodium],0.895,0.916,0.789,0.712
COc1ccc(CC2c3cc(OC)c(OC)cc3CC[N+]2(C)CCC(=O)OCCCCCOC(=O)CC[N+]2(C)CCc3cc(OC)c(OC)cc3C2Cc2ccc(OC)c(OC)c2)cc1OC.O=S(=O)([O-])c1ccccc1.O=S(=O)([O-])c1ccccc1 (stereo not given) [Atracurium Besylate],0.629,0.726,0.536,0.631
CCCCCCCCCCCCCCCCCC(=O)OC [Methyl Stearate],1.19,0.672,1.35,0.717
CC(C)(C)NCC(O)c1ccc(O)c(CO)c1.CC(C)(C)NCC(O)c1ccc(O)c(CO)c1.O=C(O)C(O)C(O)C(=O)O (stereo not given) [levalbuterol tartrate],0.79,1.25,0.742,0.696
